In experiment [1] the target is human Argonaute2 (recombinant AGO2) (human, UniProt Q9UKV8). The experiment can be described thus: SEC.
The target of experiment [2] is human Argonaute4 (recombinant AGO4) (human, UniProt Q9HCK5). The experiment can be described thus: SEC. For orientation: In gel filtration, larger molecules generally elute earlier.

B1: SUMO-fused TNRC6B V617-I636 fragment K629A (domain or fragment)
chain: not shown
Turning to B1, the binding result in experiment [1] and in experiment [2] was “binds” throughout.

B2: SUMO-fused TNRC6B V617-I636 fragment Q625E (domain or fragment)
chain: not shown
Take B2: the binding result in experiment [1] and in experiment [2] was “binds” throughout.

Source of the values: paper PMC6707842 (Molecular cell, 2019).
